Test results: US20220288124A1 (AUGUSTA UNIVERSITY RESEARCH INSTITUTE, published 2022)

Tests used:
[1] = biological target: T1, soluble hGPC3 protein (recombinant human glypican 3) (human, UniProt P51654 25-560, limits assumed); assay: flow cytometry of CAR-transduced T cells stained with FITC-labeled hGPC3; Mock-T 0.70%
T1 construct: The construct used in ELISA and BLI and as FITC-labelled protein is not further defined; also called rhGPC3; FITC-labeled hGPC3
Description: GS linker: glycine-serine linker; TM:transmembrane domain of CD28. FIG. 5B is an illustration of the experimental procedure. Human T cells were isolated from PBMC and activated by CD3/CD28 beads for 24 hrs. On day 0, T cells were transduced with lv and CAR expression was monitored from day 3-13. FIG. 5C is a panel of dot plots after CAR gene transduction at different time points were presented. CAR expression was detected by anti-mouse Fab antibody at indicated time points. This experiment was repeated at least 5 time with similar observations. FIGS. 5D and 5E are dot plots showing CAR molecules on the transduced T cells were stained with anti-mouse Fab antibody (A) or FITC-labeled hGPC3. Mock transduced T cells were used as control. FIG. 5F is a graph showing the percent of CAR+ T cells that could bind hGPC3 protein.
The following antibodies were used in the staining: anti-human CD45, anti-mouse CD45, anti-mouse Fab, hGPC3 protein. Cells were stained with indicated antibodies and analyzed on LSR flow cytometer. Goat anti-mouse Fab antibody (Jackson ImmunoReseach Lab) and FITC-labeled hGPC3 were used to determine CAR transduction and the binding of CAR to cognate antigen.

[2] = biological target: hGPC3 on the surface of HCC tumor cells (HepG2; hGPC3low Huh7) (human, UniProt P51654 25-554); assay: cell-based or functional assay

| % of GPC3-positive cells [1] [%] | fold change of % CAR+ T cells 6 days after HepG2 stimulation [2] [fold] | Binder |
| --- | --- | --- |
| 12.9 | – | 8F8-CAR (second generation chimeric antigen receptor on human T cells) (other, also called 8F8 CARTs; 8F8 CAR+ T cells) DVVMTQTPLTLSVTIGQPASISCKSSQSLLDSDGETYLNWLLQRPGQSPKRLIYLVSKLDSGVPDRFTGSGSGTDFTLKISRVEAEDLGVYYCWQGTHFPLTFGAGTKLELKRGGGGSGGGGSGGGGSEVKLVESGGDLVKPGGSLKLSCAASGFTFSRYGLSWVRQTPEKRLEWVATISGSGSYTYYPDSVKGRFTISRDNAKNNLYLQMSSLRSEDTALYYCVRRGTYGYDNWGQGTTLTVSSTTTPAPRPPTPAPTIASQPLSLRPEACRPAAGGAVHTRGLDFACDFWVLVVVGGVLACYSLLVTVAFIIFWVKRGRKKLLYIFKQPFMRPVQTTQEEDGCSCRFPEEEEGGCEL[sequence of about 120 residues not given] |
| 25.6 | ~4 | 12D7-CAR (second generation chimeric antigen receptor on human T cells) (other, also called 12D7 CARTs; 12D7 CAR+ T cells) DIVMTQSQKFMSTSVGDRVSVTCKASQNVGTNVAWYQQKPGQSPKALIYSASYRYSGVPDRFTGSGSGTDFTLTISNVQSEDLAEYFCQQYNSYPLTFGAGTKLELKRGGGGSGGGGSGGGGSQVQLQQPGSELVRPGASVKLSCKASGYTFTSYWMHWVKQRLGQGLEWIGNIYPGSGSTNYDEKFKSKGTLTVDTSSSTAYMHLSSLTSEDSAVYYCTRGDYDWVFAYWGQGTLVTVSATTTPAPRPPTPAPTIASQPLSLRPEACRPAAGGAVHTRGLDFACDFWVLVVVGGVLACYSLLVTVAFIIFWVKRGRKKLLYIFKQPFMRPVQTTQEEDGCSCRFPEEEEGGCEL[sequence of about 120 residues not given] |
| 66.7 | 6 | 6G11-CAR (second generation chimeric antigen receptor on human T cells) (other, In '1 and 22', 1 is the nucleic acid and 22 the protein (claims 15-16); also called 6G11 CARTs; 6G11 CAR+ T cells) DIQMNQSPSSLSASLGDTITITCHASQNINVWLSWYQQKPGNIPKLLIYKASNLHTGVPSRFSGSGSGTGFTLTISSLQPEDIATYYCQQGQSYPWTFGGGTKLEIKRGGGGSGGGGSGGGGSQVQLQQPGSELVRPGASVKLSCKASGYTFTSCWMHWVKQRPGQGLEWIGNIYPGYGNTNYDEKFKNKATLTVDTSSSTAYMQLSGLTSEDSAVYYCTRGSYLYAMDYWGQGTSVTVSSTTTPAPRPPTPAPTIASQPLSLRPEACRPAAGGAVHTRGLDFACDFWVLVVVGGVLACYSLLVTVAFIIFWVKRGRKKLLYIFKQPFMRPVQTTQEEDGCSCRFPEEEEGGCEL[sequence of about 120 residues not given] |
